Laboratory results as given in US20250179192A1 (PHARMABCINE, published 2025).

How the values were obtained:
VEGFR2 (KDR) on HUVECs = molecular target: T1, VEGFR2 (KDR) on HUVECs (human, UniProt P35968); assay: FACS on HUVECs, 5 nM, anti-human IgG-PE secondary; secondary only 65.7
T1 construct: Endogenous receptor on HUVECs; also called KDR (VEGFR-2)
Protocol: To determine the binding activity of the fusion protein to HUVECs, FACS analysis was performed using the fusion protein and control antibodies (6A6, 6A6×DLL4, D4, Minod-Fc).
Specifically, HUVECs (LONZA, Cat No. C2519A) were cultured at 37° C. and 5% CO₂ using a plate coated with 2% gelatin and VascuLife medium complete kit (Lifeline Cell Technology, Cat No. #LCT-LL-0005). The cells were prepared at a concentration of 2×10⁷ cells/ml in FACS buffer (0.5% FBS, 0.05% sodium azide in PBS) and dispensed at 50 μl into each of FACS tubes. 100 μl of each antibody at a concentration of 5 nM was mixed in the FACS tube, followed by reaction at 4° C. for 30 minutes. After completion of reaction, 2 ml of FACS buffer was added to each tube, followed by centrifugation at 1500 rpm for 3 minutes. The supernatant was removed, the cells were resuspended, and 100 μl of anti-human IgG-PE antibody (1:200, Bethyl, #A80-248PE) was added, followed by reaction at 4° C. for 20 minutes. 2 ml of FACS buffer was added to each FACS tube, followed by centrifugation at 1500 rpm for 3 minutes. The separated supernatant was removed, the cells were resuspended in 200 μl of FACS buffer, and the binding activity was analyzed using FACS (Beckton Dickinson, Lyric).

hKDR-ECD = molecular target: T2, hKDR-ECD (human, UniProt P35968 20-764); assay: SPR Biacore T200, fusion protein captured on Protein A chip, antigen as analyte, 1:1 model
T2 construct: extracellular domain; Analyte in SPR; also called human KDR (VEGFR-2) extracellular domain
Protocol: (§1) The binding ability of the selected fusion protein to the antigen was measured using SPR (Biacore T200, Cytiva). The fusion protein was captured and analyzed using the antigen protein as an analyte. Using a Protein A chip, the fusion protein was immobilized on the surface according to the manufacturer's instructions. The fusion protein on the sensor chip was diluted with PBS-T running buffer to a concentration of 5 μg/ml and injected at a flow rate of 10 μl/min to reach about 200 RU. The antigen was diluted with PBS-T running buffer by concentration and injected at a flow rate of 30 μl/min for 4 minutes, and the dissociation time was set to 10 minutes. To remove the fusion protein bound every cycle, a regeneration solution (10 mM glycine-HCl, pH 1.5) was injected at a flow rate of 30 μl/min for 1 minute. The experimental results were calculated using the 1:1 binding model of BIA evaluation software version 1.0.

hDLL4 = molecular target: T3, hDLL4 (human, UniProt Q9NR61 part only, limits assumed); assay: as above
T3 construct: Analyte in SPR; also called human delta-like ligand 4 (soluble antigen protein)
Protocol: as §1

[1] = molecular target: T4, hDLL4 expressed on HEK293 cells (human, UniProt Q9NR61 27-685); assay: FACS on hDLL4-overexpressing HEK293 cells (293-DLL4), 5 nM, anti-human IgG-PE secondary; secondary only 82.0
T4 construct: whole, on cells; also called DLL4-overexpressed HEK293 cells
Protocol: Specifically, the pcDNA-hDLL4 vector synthesized by GeneArt was transfected into HEK293 cells using Lipofectamin™ 2000 (Invitrogen #1168-019, USA), and neomycin (Gibco #10131, 50 mg/ml) was added for selection. Then, all grown cells were collected and cultured in a pool state. Then, 23 types of single colonies were obtained by culture using a limiting dilution method, and among the single colonies, one type of cell line that highly overexpressed hDLL4 was selected and tested. The selected cells were prepared to a concentration of 2×10⁷ cells/ml in FACS buffer (0.5% FBS, 0.05% sodium azide in PBS) and dispensed at 50 μl into each of FACS tubes. 5 nM fusion protein and control antibodies (6A6, 6A6×DLL4, D4, D4×DLL4, Minod-Fc) were added in 100 μl to each of the FACS tubes containing the cells, followed by reaction at 4° C. for 30 minutes. After completion of reaction, 2 ml of FACS buffer was added to each tube, followed by centrifugation at 1500 rpm for 3 minutes. The supernatant was removed, the cells were well resuspended, and then 100 μl of anti-human IgG-PE antibody (1:200, […], #A80-248PE) was added, followed by reaction at 4° C. for 20 minutes. […] The separated supernatant was removed, the cells were resuspended in 200 μl of FACS buffer, and the binding activity was analyzed using FACS (Beckton Dickinson, Lyric).

Chain of hDLL4 (Q9NR61 27-524 limits assumed): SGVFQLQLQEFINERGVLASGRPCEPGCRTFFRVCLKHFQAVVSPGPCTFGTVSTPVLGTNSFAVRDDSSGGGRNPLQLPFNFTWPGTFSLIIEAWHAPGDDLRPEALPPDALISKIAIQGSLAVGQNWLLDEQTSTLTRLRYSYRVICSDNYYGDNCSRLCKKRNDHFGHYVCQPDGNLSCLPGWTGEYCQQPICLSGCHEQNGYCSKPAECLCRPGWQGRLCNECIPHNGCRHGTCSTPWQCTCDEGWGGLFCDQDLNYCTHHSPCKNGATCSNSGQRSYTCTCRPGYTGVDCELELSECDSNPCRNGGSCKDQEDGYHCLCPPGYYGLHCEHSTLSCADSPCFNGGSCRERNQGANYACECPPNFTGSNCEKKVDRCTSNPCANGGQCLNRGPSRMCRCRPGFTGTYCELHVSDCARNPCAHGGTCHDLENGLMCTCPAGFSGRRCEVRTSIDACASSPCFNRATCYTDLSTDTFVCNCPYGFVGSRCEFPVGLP
Chain of hKDR-ECD (P35968 20-764): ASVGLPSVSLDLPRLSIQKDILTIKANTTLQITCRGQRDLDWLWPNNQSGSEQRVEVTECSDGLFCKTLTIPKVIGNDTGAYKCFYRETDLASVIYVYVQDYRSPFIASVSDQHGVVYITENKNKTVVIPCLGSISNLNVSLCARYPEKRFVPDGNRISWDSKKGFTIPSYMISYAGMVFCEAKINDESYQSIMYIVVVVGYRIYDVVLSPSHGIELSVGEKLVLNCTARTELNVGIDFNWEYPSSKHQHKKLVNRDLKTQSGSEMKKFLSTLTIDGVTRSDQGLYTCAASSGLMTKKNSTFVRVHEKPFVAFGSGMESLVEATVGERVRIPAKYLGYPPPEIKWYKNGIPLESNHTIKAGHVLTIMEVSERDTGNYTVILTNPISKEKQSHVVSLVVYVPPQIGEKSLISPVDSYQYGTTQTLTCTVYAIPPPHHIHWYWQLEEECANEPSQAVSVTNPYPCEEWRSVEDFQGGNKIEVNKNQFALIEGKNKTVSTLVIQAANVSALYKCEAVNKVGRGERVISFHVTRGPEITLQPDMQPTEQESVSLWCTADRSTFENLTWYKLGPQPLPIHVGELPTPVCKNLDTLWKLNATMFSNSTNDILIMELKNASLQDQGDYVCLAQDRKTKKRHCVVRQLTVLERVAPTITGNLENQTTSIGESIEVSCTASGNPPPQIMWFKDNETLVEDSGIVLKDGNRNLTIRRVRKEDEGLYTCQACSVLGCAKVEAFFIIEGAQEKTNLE
Chain of VEGFR2 (KDR) on HUVECs (P35968 20-1356 limits assumed): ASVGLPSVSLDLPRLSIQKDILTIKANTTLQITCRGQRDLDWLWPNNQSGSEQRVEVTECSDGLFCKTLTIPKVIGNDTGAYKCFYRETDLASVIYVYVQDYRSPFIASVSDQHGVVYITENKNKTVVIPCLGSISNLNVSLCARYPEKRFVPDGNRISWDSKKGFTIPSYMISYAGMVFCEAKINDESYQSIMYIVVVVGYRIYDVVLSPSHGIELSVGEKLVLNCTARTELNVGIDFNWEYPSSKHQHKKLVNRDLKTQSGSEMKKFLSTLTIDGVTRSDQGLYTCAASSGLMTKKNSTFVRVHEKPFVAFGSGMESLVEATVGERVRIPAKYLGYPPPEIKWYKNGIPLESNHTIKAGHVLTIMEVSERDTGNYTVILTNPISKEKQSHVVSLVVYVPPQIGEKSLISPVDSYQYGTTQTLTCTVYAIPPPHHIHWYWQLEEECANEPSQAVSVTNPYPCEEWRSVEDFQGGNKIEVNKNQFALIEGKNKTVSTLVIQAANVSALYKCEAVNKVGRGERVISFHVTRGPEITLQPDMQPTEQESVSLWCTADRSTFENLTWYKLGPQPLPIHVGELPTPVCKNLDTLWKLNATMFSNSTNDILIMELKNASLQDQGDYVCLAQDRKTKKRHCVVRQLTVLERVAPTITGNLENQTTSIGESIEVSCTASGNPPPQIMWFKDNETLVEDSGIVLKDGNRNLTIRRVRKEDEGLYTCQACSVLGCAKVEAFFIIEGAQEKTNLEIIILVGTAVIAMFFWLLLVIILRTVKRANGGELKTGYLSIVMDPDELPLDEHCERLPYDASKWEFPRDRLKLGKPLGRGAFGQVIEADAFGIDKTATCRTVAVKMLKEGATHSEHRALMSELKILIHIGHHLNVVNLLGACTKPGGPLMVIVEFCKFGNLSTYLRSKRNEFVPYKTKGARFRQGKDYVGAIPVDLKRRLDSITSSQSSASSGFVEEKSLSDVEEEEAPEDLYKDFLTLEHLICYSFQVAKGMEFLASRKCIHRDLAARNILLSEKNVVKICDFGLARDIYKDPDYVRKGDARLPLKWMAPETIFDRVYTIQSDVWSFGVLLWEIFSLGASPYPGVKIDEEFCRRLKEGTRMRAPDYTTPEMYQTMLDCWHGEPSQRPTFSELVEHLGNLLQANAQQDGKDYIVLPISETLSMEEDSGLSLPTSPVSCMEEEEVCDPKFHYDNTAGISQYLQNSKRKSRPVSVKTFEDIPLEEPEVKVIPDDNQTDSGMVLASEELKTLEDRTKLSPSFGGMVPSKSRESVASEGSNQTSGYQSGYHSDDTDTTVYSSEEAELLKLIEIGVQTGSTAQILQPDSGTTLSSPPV

B1: D4×DLL4 fusion protein (bispecific antibody, IgG1)
heavy: EVQLVESGGGLVQPGGSLRLSCAASGYTFSSYWMSWVRQAPGKGLEWVSEINPGNGHTNYNEKFKSRFTISRDKSKNTLYLQMNSLRAEDTAVYYCARHWGPSLTSPFDYWGQGTLVTVSS[sequence of human IgG1 constant region omitted]
light: not shown
notes: also called D4xDLL4; the fusion protein
Geometric Mean : PE-A (VEGFR2 (KDR) on HUVECs): 436
Kd (hKDR-ECD): 0.726 nM
Pmax (hKDR-ECD): 411
koff (hKDR-ECD): 6.74e-05 s⁻¹
kon (hKDR-ECD): 92800 M⁻¹ s⁻¹
Kd (hDLL4): 1.14 nM
Pmax (hDLL4): 75
koff (hDLL4): 0.000105 s⁻¹
kon (hDLL4): 92300 M⁻¹ s⁻¹
Geometric Mean : PE-A [1]: 954
